# Lines with a small IC50 respond at low doses; where the fit passes the top or lowest dose, that dose stands as a limit. AUC sums up the same curve from the lowest dose to the 256-fold higher top dose; values near 1 show little effect. For part of these data: Any top dose called inferred comes from the curve model; the source does not state it. For part of these data: Where an entry number is given, a second screen of the drug exists; the two often differ.
# Tests used:
# Test in all cases: Viability of human cancer cell lines after 72 h of drug (GDSC screen)
# ABT-888 = compound: C[C@]1(c2nc3c(C(N)=O)cccc3[nH]2)CCCN1 [ABT-888]; conditions: top dose 5 µM; top dose inferred
# Method: (§1)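 Human cancer cell lines in 384-well plates, medium with 10% serum, drug for 72 h over a 256-fold dose range (nine 2-fold or five 4-fold steps up to the top dose). Adherent lines were fixed and stained with the nucleic acid dye Syto60, suspension lines read with resazurin; signal relative to control wells, capped at 0 and 100%. One two-parameter sigmoid per drug and line, fitted in a mixed model over all curves with the slope shared within a line.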
# CMK = compound: Cc1ccc(-c2c(C(=O)CCl)n(CCCO)c3ncnc(N)c23)cc1 [CMK]; conditions: top dose 4 µM; top dose inferred
# Method: as §1
# ABT-869 = compound: Cc1ccc(F)c(NC(=O)Nc2ccc(-c3cccc4[nH]nc(N)c34)cc2)c1 [ABT-869]; conditions: top dose 1.024 µM; top dose inferred
# Method: as §1
# Zibotentan = compound: COc1nc(C)cnc1NS(=O)(=O)c1cccnc1-c1ccc(-c2nnco2)cc1 [Zibotentan]; conditions: top dose 20 µM; top dose inferred
# Method: as §1
# (5Z)-7-Oxozeaenol = compound: COc1cc(O)c2c(c1)/C=C/C[C@H](O)[C@H](O)C(=O)/C=C\C[C@H](C)OC2=O [(5Z)-7-Oxozeaenol]; conditions: top dose 10 µM; top dose inferred
# Method: as §1
# QL-X-138 = compound: C=CC(=O)Nc1cc(-n2c(=O)ccc3cnc4ccc(-c5cn[nH]c5)cc4c32)ccc1C [QL-X-138]; conditions: top dose 10.24 µM; top dose inferred
# Method: as §1
# CHIR-99021 = compound: Cc1cnc(-c2cnc(NCCNc3ccc(C#N)cn3)nc2-c2ccc(Cl)cc2Cl)[nH]1 [CHIR-99021]
# Method: as §1
# MPS-1-IN-1 = compound: COc1cc(N2CCC(O)CC2)ccc1Nc1cc(Nc2ccccc2S(=O)(=O)C(C)C)c2cc[nH]c2n1 [MPS-1-IN-1]; conditions: top dose 20 µM; top dose inferred
# Method: as §1
# CP466722 = compound: COc1cc2ncnc(-n3nc(-c4ccccn4)nc3N)c2cc1OC [CP466722]; conditions: top dose 16 µM; top dose inferred
# Method: as §1
# Thapsigargin = compound: C/C=C(/C)C(=O)O[C@H]1C(C)=C2[C@H]([C@@H]1OC(=O)CCCCCCC)[C@@](C)(OC(C)=O)C[C@H](OC(=O)CCC)[C@@]1(O)[C@H]2OC(=O)[C@@]1(C)O [Thapsigargin]; conditions: top dose 0.512 µM; top dose inferred
# Method: as §1
# GSK269962A = compound: CCn1c(-c2nonc2N)nc2cnc(Oc3cccc(NC(=O)c4ccc(OCCN5CCOCC5)cc4)c3)cc21 [GSK269962A]; conditions: top dose inferred
# Method: as §1
# Cytarabine = compound: Nc1ccn([C@@H]2O[C@H](CO)[C@@H](O)[C@@H]2O)c(=O)n1 [Cytarabine]; conditions: top dose 2 µM
# Method: as §1
# KU-55933 = compound: O=c1cc(-c2cccc3c2Sc2ccccc2S3)oc(N2CCOCC2)c1 [KU-55933]; conditions: top dose 10 µM
# Method: as §1
# [1] = top dose 2.56 µM, screen: GDSC drug entry 154
# [2] = top dose 10 µM, screen: GDSC drug entry 1241, top dose inferred
# [3] = top dose 2.5 µM, screen: GDSC drug entry 127
# [4] = top dose 5 µM, screen: GDSC drug entry 1192
cell line,measurement,setting,value
"NCI-H2081 (small cell lung carcinoma, suspension)",AUC,ABT-888,0.977
same,IC50,ABT-888,> 5 µM
same,AUC,CMK,0.988
same,IC50,CMK,> 4 µM
same,AUC,ABT-869,0.988
same,IC50,ABT-869,> 1.02 µM
same,AUC,Zibotentan,0.989
same,IC50,Zibotentan,> 20 µM
same,AUC,(5Z)-7-Oxozeaenol,0.969
same,IC50,(5Z)-7-Oxozeaenol,> 10 µM
same,AUC,QL-X-138,0.83
same,IC50,QL-X-138,6.94 µM
same,AUC,CHIR-99021; [1],0.989
same,IC50,CHIR-99021; [1],> 2.56 µM
same,AUC,CHIR-99021; [2],0.988
same,IC50,CHIR-99021; [2],> 10 µM
same,AUC,MPS-1-IN-1,0.972
same,IC50,MPS-1-IN-1,> 20 µM
same,AUC,CP466722,0.857
same,IC50,CP466722,14.2 µM
same,AUC,Thapsigargin,0.874
same,IC50,Thapsigargin,> 0.512 µM
same,AUC,GSK269962A; [3],0.97
same,IC50,GSK269962A; [3],> 2.5 µM
same,AUC,GSK269962A; [4],0.93
same,IC50,GSK269962A; [4],> 5 µM
same,AUC,Cytarabine,0.882
same,IC50,Cytarabine,> 2 µM
same,AUC,KU-55933,0.985
same,IC50,KU-55933,> 10 µM
"NCI-H2135 (non-small cell lung carcinoma, adherent)",AUC,ABT-888,0.985
same,IC50,ABT-888,> 5 µM
same,AUC,CMK,0.974
same,IC50,CMK,> 4 µM
same,AUC,ABT-869,0.991
same,IC50,ABT-869,> 1.02 µM
same,AUC,Zibotentan,0.978
same,IC50,Zibotentan,> 20 µM
same,AUC,(5Z)-7-Oxozeaenol,0.974
same,IC50,(5Z)-7-Oxozeaenol,> 10 µM
same,AUC,QL-X-138,0.715
same,IC50,QL-X-138,2.54 µM
same,AUC,CHIR-99021; [1],0.988
same,IC50,CHIR-99021; [1],> 2.56 µM
same,AUC,CHIR-99021; [2],0.99
same,IC50,CHIR-99021; [2],> 10 µM
same,AUC,MPS-1-IN-1,0.802
same,IC50,MPS-1-IN-1,9.52 µM
same,AUC,CP466722,0.899
same,IC50,CP466722,> 16 µM
same,AUC,Thapsigargin,0.317
same,IC50,Thapsigargin,0.01 µM
same,AUC,GSK269962A; [3],0.983
same,IC50,GSK269962A; [3],> 2.5 µM
same,AUC,GSK269962A; [4],0.964
same,IC50,GSK269962A; [4],> 5 µM
same,AUC,Cytarabine,0.991
same,IC50,Cytarabine,> 2 µM
same,AUC,KU-55933,0.981
same,IC50,KU-55933,> 10 µM
"NCI-H2141 (small cell lung carcinoma, suspension)",AUC,ABT-888,0.991
same,IC50,ABT-888,> 5 µM
same,AUC,CMK,0.918
same,IC50,CMK,> 4 µM
same,AUC,ABT-869,0.991
same,IC50,ABT-869,> 1.02 µM
same,AUC,Zibotentan,0.99
same,IC50,Zibotentan,> 20 µM
same,AUC,(5Z)-7-Oxozeaenol,0.726
same,IC50,(5Z)-7-Oxozeaenol,2.69 µM
same,AUC,QL-X-138,0.804
same,IC50,QL-X-138,4.97 µM
same,AUC,CHIR-99021; [1],0.99
same,IC50,CHIR-99021; [1],> 2.56 µM
same,AUC,CHIR-99021; [2],0.99
same,IC50,CHIR-99021; [2],> 10 µM
same,AUC,MPS-1-IN-1,0.932
same,IC50,MPS-1-IN-1,> 20 µM
same,AUC,CP466722,0.878
same,IC50,CP466722,15.5 µM
same,AUC,Thapsigargin,0.676
same,IC50,Thapsigargin,0.0975 µM
same,AUC,GSK269962A; [3],0.991
same,IC50,GSK269962A; [3],> 2.5 µM
same,AUC,GSK269962A; [4],0.985
same,IC50,GSK269962A; [4],> 5 µM
same,AUC,Cytarabine,0.985
same,IC50,Cytarabine,> 2 µM
same,AUC,KU-55933,0.989
same,IC50,KU-55933,> 10 µM
"NCI-SNU-1 (stomach, suspension)",AUC,ABT-888,0.986
same,IC50,ABT-888,> 5 µM
same,AUC,CMK,0.977
same,IC50,CMK,> 4 µM
same,AUC,ABT-869,0.978
same,IC50,ABT-869,> 1.02 µM
same,AUC,Zibotentan,0.984
same,IC50,Zibotentan,> 20 µM
same,AUC,(5Z)-7-Oxozeaenol,0.772
same,IC50,(5Z)-7-Oxozeaenol,3.98 µM
same,AUC,QL-X-138,0.7
same,IC50,QL-X-138,2.39 µM
same,AUC,CHIR-99021; [1],0.988
same,IC50,CHIR-99021; [1],> 2.56 µM
same,AUC,CHIR-99021; [2],0.969
same,IC50,CHIR-99021; [2],> 10 µM
same,AUC,MPS-1-IN-1,0.783
same,IC50,MPS-1-IN-1,8.72 µM
same,AUC,CP466722,0.751
same,IC50,CP466722,5.44 µM
same,AUC,Thapsigargin,0.413
same,IC50,Thapsigargin,0.0184 µM
same,AUC,GSK269962A; [3],0.886
same,IC50,GSK269962A; [3],> 2.5 µM
same,AUC,GSK269962A; [4],0.961
same,IC50,GSK269962A; [4],> 5 µM
same,AUC,Cytarabine,0.963
same,IC50,Cytarabine,> 2 µM
same,AUC,KU-55933,0.962
same,IC50,KU-55933,> 10 µM
